Source: the supplement of paper PMC3334620
Over roughly 33,000 sequences, “E-score (-0.5 to 0.5)” has its median near -0.035; the highest 2% begin near 0.35. The list shows a part of the results.

target: T1, Pdr3 (UniProt P33200); assay: PBM E-score (8-mer binding enrichment) (E-score (-0.5 to 0.5)); higher = stronger / more preferred TF binding; most listed sequences are background and not binding sites; settings: protein concentration: 200 nM; construct: GST-full length
T1 sequence: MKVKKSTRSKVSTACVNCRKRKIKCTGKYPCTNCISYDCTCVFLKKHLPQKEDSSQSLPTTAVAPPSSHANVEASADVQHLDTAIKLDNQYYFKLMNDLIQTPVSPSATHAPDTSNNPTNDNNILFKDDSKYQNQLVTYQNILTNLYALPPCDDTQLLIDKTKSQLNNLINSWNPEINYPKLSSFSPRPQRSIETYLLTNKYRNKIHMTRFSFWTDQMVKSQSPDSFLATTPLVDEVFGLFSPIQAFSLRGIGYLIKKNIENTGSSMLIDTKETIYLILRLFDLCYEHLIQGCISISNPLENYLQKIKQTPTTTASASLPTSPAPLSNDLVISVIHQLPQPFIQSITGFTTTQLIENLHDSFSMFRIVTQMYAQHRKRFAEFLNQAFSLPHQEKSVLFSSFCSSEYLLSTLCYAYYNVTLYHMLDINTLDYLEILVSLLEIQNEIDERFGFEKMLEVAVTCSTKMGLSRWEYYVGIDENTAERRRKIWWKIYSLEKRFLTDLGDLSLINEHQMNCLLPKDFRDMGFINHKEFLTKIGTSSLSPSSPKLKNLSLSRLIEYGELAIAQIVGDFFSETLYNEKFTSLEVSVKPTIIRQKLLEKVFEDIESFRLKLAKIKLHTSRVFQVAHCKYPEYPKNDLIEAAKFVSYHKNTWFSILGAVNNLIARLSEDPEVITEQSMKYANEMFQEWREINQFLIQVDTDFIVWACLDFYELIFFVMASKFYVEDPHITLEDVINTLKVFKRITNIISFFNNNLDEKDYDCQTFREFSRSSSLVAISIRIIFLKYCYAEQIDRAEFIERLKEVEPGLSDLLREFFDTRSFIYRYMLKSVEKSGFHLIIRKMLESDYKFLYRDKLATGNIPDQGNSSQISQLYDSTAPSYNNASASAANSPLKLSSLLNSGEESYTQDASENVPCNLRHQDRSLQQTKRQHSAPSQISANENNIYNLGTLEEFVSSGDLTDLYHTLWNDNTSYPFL
Method in brief: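 Masliner-normalised scans of fluorescent anti-GST signal were the basis for scoring. That signal came from GST-tagged yeast transcription factors applied at about 100-200 nM to double-stranded universal all-10-mer Agilent arrays on fresh or once-stripped slides. Each ungapped eight-base word, pooled with its reverse complement, received an E-score from the Universal PBM Analysis Suite.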

Sequence	PBM E-score
AGCTGCTG	-0.0512
CATATAGA	-0.0939
ATCTGGTG	-0.0696
ATGCCCAA	-0.119
ACGCGATC	0.135
CGAGGACA	0.0468
AGTCTGAT	-0.133
GAGACACC	-0.058
GGCTTCAC	0.0412
GCCGATGA	0.203
AAGTGTGT	-0.187
GGAAAGGA	0.256
GACCTAAC	-0.00092
AACGCCGG	0.245
CTAAACGA	-0.068
CTTCTCGA	-0.199
CGACCCCC	-0.282
GAGGTCAC	-0.0512
ACCGGTGG	-0.019
CCACAGAC	-0.233
GGACTCAC	0.00627
TAATCACA	-0.142
ACGAAAGC	-0.165
ATGAACCG	-0.138
ACCTTAAG	-0.116

Sequence	PBM E-score
CCCCGAAA	0.209
AATCGTCG	0.0795
ACGTTGAC	-0.228
CAAGGCGG	0.00901
AGAAGCTA	-0.125
ATACCCAA	-0.047
AATGGCAC	-0.0476
GTCCCCAA	-0.159
GCAGGTAA	-0.0309
AATGCGCG	0.341
GTGGTAGA	-0.152
CTCGCGCA	-0.029
ACACGCCT	-0.296
ATCTGCTA	-0.241
AATGACCG	0.151
CCGTCGAC	0.234
GCTGATAC	-0.0772
CCCCAGGA	-0.164
GCGCAGAC	0.0291
CTCCCGAC	0.083
AAGGCTTC	-0.145
ACGCGATG	0.0398
CCAGAAGA	-0.334
CCTTTCAA	-0.0764
GAGAGATA	-0.0138

Sequence	PBM E-score
CCTACAAG	-0.0848
ATGATAGA	0.00887
CGACTCTA	-0.131
CCCTGACC	0.0389
CACCACAG	-0.0522
ACCAAACA	-0.0428
ACAGCCCC	0.0468
CAGAAATG	-0.189
GGGTGAGA	-0.0394
CGGTTCAG	-0.134
AGTGATCG	-0.104
ATGAACGG	0.0922
CTAGCGTC	-0.215
ACTGTATA	-0.0502
AGGATCAC	-0.231
CCCTCAAG	-0.267
CTGACGTA	-0.156
CTCGGTGA	0.103
CAAAGAAC	0.00601
ACCTCAAC	-0.0674
CCATCAGA	-0.162
GTATAGAA	-0.0532
ATACCATA	0.0258
CGTTGAGC	0.0731
ACGCCCGT	0.131

Sequence	PBM E-score
TGGACGAA	-0.058
AAATAACT	0.0711
CATTAAGG	-0.0219
CGACACCG	0.153
AGCTATGG	-0.0641
CTGGTGCC	-0.206
CAACCTAA	-0.107
GAAAGGCA	0.0934
GGAGTGGA	0.0438
ACGGCGAA	0.128
ATCTGTAC	-0.013
CATGAAAC	0.0519
TACGTCCA	-0.17
CCCTGGTA	-0.205
GTCGACGA	0.138
ATTCTGCG	0.106
AATCTGGC	-0.139
GATGCTCA	0.0461
AACGAGCG	-0.00371
AAGTCGCG	0.108
TAAAATAA	0.0341
CGGACTTC	0.253
GCTCGACC	-0.0284
ACAGTAAT	-0.0206
GGACAGTA	0.0864

Sequence	PBM E-score
CACCTGAA	-0.0512
CTGCTTTA	0.137
TCGGTTCA	-0.231
CACCTATC	-0.00292
CTACCGGA	0.335
AGTGACAG	-0.057
GATCAGAA	-0.118
CATTCAGC	-0.141
AAGGGCAA	0.162
ATACCCCG	0.289
CATGTCCA	0.0313
GTCGCGCA	0.0751
CTACCCAA	-0.193
CTACAAAG	-0.116
GGCCTGAA	-0.112
GGAAACCA	0.122
ACTTGTCG	0.0857
CAATCAAC	0.0774
AGTTTCTC	-0.00229
AAATGTAA	0.0762
ACAGCGTA	-0.09
GAAGGACA	0.0636
ACTCTACG	-0.176
AACAGGCG	-0.0423
GCGTGGCA	-0.096

Sequence	PBM E-score
ATAATGTA	-0.164
CAGTGTTA	0.0977
GATCGACC	0.0705
ACCCGACC	0.101
TAGGGCAA	-0.108
CAGTCATA	-0.137
CCGCTTGA	0.184
CAGCTATG	-0.255
CATGGACA	-0.154
GACCCAAA	-0.0474
TAAGTGAA	-0.112
CGCCACCC	-0.0704
GGCAAGAC	-0.0278
ATCACCTG	-0.061
GCCCTCCC	-0.0721
AGCGATAT	-0.0117
CAAAATAC	-0.0143
CCAATTGA	-0.0229
GTTATTCA	-0.187
ATGCACTA	-0.186
ATGGACAT	0.0367
CCTCTTTA	-0.258
GTAGTGTA	-0.214
ACCATTTC	0.0064
CCCGTAAG	-0.127

Sequence	PBM E-score
AACCCATC	-0.0395
ACTCTGCA	-0.125
GCGAGCCA	-0.0301
CAGATCGG	0.228
CGTACAGC	0.0556
ATTATTGG	0.114
GCTAAAGC	-0.221
CCTAGATC	-0.201
ACCTGCGC	0.0443
AGGGACGC	-0.162
AGGCATCG	-0.0625
AGGCCCTC	-0.0799
AACGAGAT	0.00769
CCAAGTAC	-0.165
AGAACGTC	-0.0698
GATTCTCA	-0.0218
CAGCCTTC	-0.0998
GTACTGGA	-0.139
AGTCCCGC	0.172
ACGTTGGA	-0.221
GAACGTAA	0.0202
CCCTAACA	0.05
